# Experimental data as given in a collection of fitness landscapes (doi:10.1016/j.celrep.2020.107928).
# Over roughly 81,000 sequences, “one-hybrid fitness for binding NBS DNA” has its median near -0.1; the highest 2% begin near 0.36. The list shows a part of the results.
# B1: Caulobacter ParB omega fusion; a variant is named by its letters at X, in order, B8GW30 (parent)
# chain: MESVVVGEPGMSEGRRGLGRGLSALLGEVDAAPAQAPGEQLGGSREAPIEILQRNPDQPRRTFREEDLEDLSNSIREKGVLQPILVRPSPDTAGEYQIVAGERAWRAAQRAGLKTVPIMVRELDDLAVLEIGIIENVQRADLNVLEEALSYKVLMEKFERTQENIAQTIGKSXSHVANXMRLLXLPDEVQSYLVSGELTAXHARAIAAAADPVALAKQIIEGGLSVRETEALARKAPNLSAGKSKGGRPPRVKDTDTQALESDLSSVLGLDVSIDHRGSTGTLTITYATLEQLDDLCNRLTRGI
# Variants of: B1
# Assay: one-hybrid fitness for binding NBS DNA (the Noc-binding site; scaled: cognate 1, non-cognate 0); higher = stronger binding
# Conditions: with NBS DNA site
# Method in brief: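 Fitness is the rescaled log change in variant-to-wild-type read ratio, measured by Illumina sequencing of plasmids before and after bacterial one-hybrid selection. The scale puts cognate at 1 and non-cognate at 0. Selection of Caulobacter ParB libraries, four specificity codons randomised, took place in E. coli USO with a HIS3 reporter, site 19 bp from the promoter, over 48 hours at 37°C on M9-minus-histidine with 0.1 mM IPTG and 5 mM 3-AT.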
row,Variant,one-hybrid fitness for binding NBS DNA
1,QCPG,≤ 0.2
2,QCGC,0.244
3,YRVG,≤ 0.2
4,SKYH,≤ 0.2
5,LEKP,≤ 0.2
6,KMVS,≤ 0.2
7,GSCH,≤ 0.2
8,TLTK,≤ 0.2
9,ANHS,≤ 0.2
10,PAYC,≤ 0.2
11,SAHV,≤ 0.2
12,CTVC,≤ 0.2
13,NTTV,≤ 0.2
14,VDLG,≤ 0.2
15,PLGV,≤ 0.2
16,RLMS,0.269
17,TAFG,≤ 0.2
18,TKWW,≤ 0.2
19,EDTD,≤ 0.2
20,ICRM,≤ 0.2
21,QIQG,≤ 0.2
22,LIPM,≤ 0.2
23,EPGT,≤ 0.2
24,MIQT,≤ 0.2
25,RIQA,≤ 0.2

row,Variant,one-hybrid fitness for binding NBS DNA
1,KCRF,≤ 0.2
2,QDVL,≤ 0.2
3,HATH,≤ 0.2
4,PYWR,0.235
5,VMTI,≤ 0.2
6,KNQP,≤ 0.2
7,GNTN,≤ 0.2
8,RPIV,≤ 0.2
9,AGGW,≤ 0.2
10,GLPD,≤ 0.2
11,AFPV,≤ 0.2
12,MRYI,≤ 0.2
13,VQHS,≤ 0.2
14,PPPG,≤ 0.2
15,IWNL,≤ 0.2
16,ACFK,≤ 0.2
17,FVNA,≤ 0.2
18,NLVG,≤ 0.2
19,SFWG,≤ 0.2
20,DCKR,0.337
21,TCSL,≤ 0.2
22,GEAS,≤ 0.2
23,TSAV,≤ 0.2
24,SRFL,≤ 0.2
25,YYYN,≤ 0.2

row,Variant,one-hybrid fitness for binding NBS DNA
1,WPHF,≤ 0.2
2,RANP,≤ 0.2
3,TPYT,≤ 0.2
4,ERTV,≤ 0.2
5,SMAY,≤ 0.2
6,ECGT,≤ 0.2
7,CRGT,≤ 0.2
8,PNTV,≤ 0.2
9,EARC,≤ 0.2
10,DEPY,≤ 0.2
11,NVWS,≤ 0.2
12,SAYN,≤ 0.2
13,FPYD,≤ 0.2
14,EMCF,≤ 0.2
15,PFRH,≤ 0.2
16,RGPR,0.216
17,FGAA,≤ 0.2
18,PKRH,≤ 0.2
19,RRCH,0.382
20,GINA,≤ 0.2
21,IWSK,≤ 0.2
22,GARW,≤ 0.2
23,AEWH,≤ 0.2
24,HPQR,≤ 0.2
25,KQKA,≤ 0.2

row,Variant,one-hybrid fitness for binding NBS DNA
1,ASRE,≤ 0.2
2,IRHT,0.28
3,IRHP,≤ 0.2
4,VDRE,≤ 0.2
5,TGIP,≤ 0.2
6,GSKR,0.201
7,GQLT,≤ 0.2
8,SYKQ,≤ 0.2
9,CRTS,≤ 0.2
10,RTWK,≤ 0.2
11,LIYH,≤ 0.2
12,KVLR,≤ 0.2
13,PDSM,≤ 0.2
14,KNTC,≤ 0.2
15,LRFF,≤ 0.2
16,NPDI,≤ 0.2
17,WTYC,≤ 0.2
18,TKKT,≤ 0.2
19,HRCQ,≤ 0.2
20,VMDM,≤ 0.2
21,RDPR,≤ 0.2
22,WQHG,≤ 0.2
23,MSIN,≤ 0.2
24,CEKS,≤ 0.2
25,PYDI,≤ 0.2

row,Variant,one-hybrid fitness for binding NBS DNA
1,QWPV,≤ 0.2
2,MPIS,≤ 0.2
3,VRVC,≤ 0.2
4,NATM,≤ 0.2
5,DHPM,≤ 0.2
6,GPGG,≤ 0.2
7,RRQG,0.377
8,QFFS,≤ 0.2
9,DVTS,≤ 0.2
10,WAKM,≤ 0.2
11,KYHP,≤ 0.2
12,RAGL,≤ 0.2
13,YPAG,≤ 0.2
14,AQEC,≤ 0.2
15,PACL,≤ 0.2
16,GPSG,≤ 0.2
17,TSSS,≤ 0.2
18,RTMA,≤ 0.2
19,GLEE,≤ 0.2
20,WRRY,≤ 0.2
21,LTPT,≤ 0.2
22,TYIG,≤ 0.2
23,RKSK,≤ 0.2
